Experimental data reported in the supplement of paper PMC3334620.
The full ranking holds about 33,000 sequences; the median of “E-score (-0.5 to 0.5)” is about -0.017, and the highest 2% start at about 0.3. This is one part of the list.

These sequences were tested against T1, Sut1 (UniProt P53032) (assay: PBM E-score (8-mer binding enrichment) (E-score (-0.5 to 0.5)); higher = stronger / more preferred TF binding; most listed sequences are background and not binding sites). Conditions: protein concentration: 200 nM; construct: GST-full length.
T1 sequence: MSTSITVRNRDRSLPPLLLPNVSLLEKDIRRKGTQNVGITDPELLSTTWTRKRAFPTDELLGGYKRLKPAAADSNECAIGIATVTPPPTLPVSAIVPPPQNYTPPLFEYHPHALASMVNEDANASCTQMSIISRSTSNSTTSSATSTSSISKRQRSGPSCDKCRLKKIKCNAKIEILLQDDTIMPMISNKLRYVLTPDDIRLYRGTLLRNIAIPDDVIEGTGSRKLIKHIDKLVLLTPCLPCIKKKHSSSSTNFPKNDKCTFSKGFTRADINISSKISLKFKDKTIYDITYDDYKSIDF
Method: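 Universal 'all 10-mer' protein binding microarrays (Agilent AMADID 015681) probed with GST-tagged S. cerevisiae TFs (full-length or DBD) made by in vitro transcription/translation (PURExpress), about 100-200 nM. Bound TF was detected with fluorescent anti-GST. Each ungapped 8-mer (which stands for itself and its reverse complement) is scored by the PBM enrichment score (E-score), a modified Wilcoxon-Mann-Whitney statistic from -0.5 to +0.5, computed with the Universal PBM Analysis Suite. Scale: above 0.35 generally sequence-specific binding.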

Sequence	PBM E-score
AGTTGGAT	0.192
CGACATAC	-0.0133
GACGGCAC	-0.312
ATATAGAG	0.0735
CAGAATCG	0.0859
ACCTCCTA	-0.289
AAGCGGGT	-0.14
ATTCCCTC	-0.233
GAACAGAA	0.168
CCTTAAGA	-0.0607
GTAAAGTA	0.134
GCACGACC	-0.248
CCAATGTA	-0.0169
AACCAGAG	-0.168
CAAGTGTC	-0.124
CCGGTTAA	0.141
CGTTACTC	-0.00241
AGCCGGAC	0.342
CGCAGGTA	0.0561
CGCCCCCC	-0.414
GGGGAGAA	-0.147
GCCTTCCA	-0.124
AATTGGCC	-0.134
ATTTATAC	0.286
GACCCGAC	0.0578

Sequence	PBM E-score
TATCATGA	0.0115
ACCTAGAA	0.107
CCAAACGG	-0.0241
ACCTTATA	0.0666
AAAGTTTG	0.153
ATACAGCG	-0.102
CTTATAAC	0.221
GCTCAGTA	0.0603
ACGAGTAA	0.105
CTACCCAC	-0.294
CTCGGCCA	-0.0126
ACAATTCA	0.165
ACACCTGC	-0.156
ATGTATTC	0.171
TCCTGTAA	0.0385
ACTGCTGG	-0.175
CGTGCACC	-0.207
GATCACCC	-0.0925
CTGCGAGA	-0.244
ACCTACTG	-0.215
CGGAATTC	0.323
CTTATTAC	0.224
ACCGTGCC	-0.128
ACGTACTG	-0.0657
CCCGGGCG	0.0238

Sequence	PBM E-score
CACGTAGG	-0.136
ACGTGCTC	-0.0287
ATACTAAC	0.0793
ACGGCTCA	-0.0994
CAGAAGCA	0.0517
CGCAGTGC	-0.23
TCAACAGA	-0.00677
ACGTATCG	-0.029
AGCGAGAA	-0.00317
AAAAGATA	0.207
CCATCCCG	-0.243
CTTATCCA	0.082
ACCATGGC	-0.0281
GATTTGCA	0.115
AACCGATA	0.116
TATCTCAA	0.242
AACTCCTG	-0.099
CGAGACCG	0.0521
GGCAATAC	-0.0369
GCCTTCGA	-0.0899
AAGCAGAC	-0.143
AGTGGAAA	0.0173
ACATCTAG	0.0823
CTTCATAC	0.185
ATCAACAC	0.0956

Sequence	PBM E-score
CTGAAAGA	0.0382
CCGTGCGA	-0.00599
TCTAGACA	-0.0621
ATCGGGCC	-0.259
CTGTCGCC	-0.302
GCGAGTCC	0.172
CTTGAGCC	-0.292
AATCAACA	0.228
CGCCTGGA	-0.255
GAGCTCTA	0.0385
ACGTAAGA	-0.00585
GACTCGAA	0.0185
TAATTCAA	0.257
GATGGCGC	-0.246
CGTGGATC	-0.154
CTGTCAAA	0.00742
ATAGGCAT	-0.0157
ACTACTAT	0.253
GTCACACA	-0.0272
CATCTAAG	-0.107
AGACCTAC	-0.036
TCGATAAA	0.127
CACTTTGG	-0.115
GCCTTCAC	-0.0368
AGGGGTTA	-0.273

Sequence	PBM E-score
AAATGGGA	0.0266
CAAATTGG	0.083
AGACGGCC	-0.259
GCGAAAAA	0.177
AACATGCA	0.0784
AGACCCTG	-0.364
GGTTTTAA	0.27
TAATCGAA	0.0525
CCTAGCTC	-0.0813
CAAGATGG	-0.155
CCACTGCA	-0.275
GGCTTGAA	-0.0304
CCAACCCG	-0.172
GGTGTGAA	0.0943
CCTAATAG	-0.0595
ACATTAGA	0.138
CGTTGCAG	-0.136
GTGCTTTA	-0.00213
CCTTTGCC	-0.117
AATTCGTA	0.114
GAGAGCGA	-0.141
CACACATG	-0.0887
CCGGTTGC	0.123
AATGGCGA	0.248
ACACCGTG	-0.201

Sequence	PBM E-score
TCGTGGAA	-0.00643
CGAGATTA	0.183
AAGAAGCC	0.178
ACATTACT	-0.00641
GAGTAATA	0.272
AGACTCTC	-0.0288
CCATTAAC	0.153
CTGTGCGC	-0.102
TACCTAAA	0.135
GGGCGGAC	0.106
ATAACTGA	0.21
TGGCACAA	-0.0828
GTTGAAAC	0.109
CTTCACAC	0.103
ATAGTAGG	0.106
AGGTTCAA	0.0608
CGTTTTGA	0.0479
AGTTGAAA	0.122
CCAGTGGA	-0.171
CCGACAAG	0.115
ATATGTGA	0.0554
CCCTCTCC	-0.24
CATCTGCG	-0.0835
CTCCGGGA	0.436
AGATGCGA	0.0111

Sequence	PBM E-score
CCAAGAGA	-0.157
GGTTCGGA	0.423
CACGTTGA	0.0377
TCTACAGA	-0.0602
ATTTAACC	0.154
GTTTAGCA	-0.00747
ATGAGCGA	-0.155
AGCAAACG	-0.0413
ACCTCGGA	0.404
AAGCGAGA	-0.0157
GACCCGGC	-0.147
GCGGCACA	-0.0392
AATAGCAC	-0.149
GCGTAGTA	-0.157
CAAATGAC	0.0784
GTCATCAA	-0.0332
AACTCAAC	0.0479
GCCAGGCC	-0.272
ACCTAAGG	-0.166
ATGGGATG	-0.0844
CTGGCACA	-0.333
ATTTTCGC	0.0665
GCGCCTCC	0.011
TAACTCCA	0.143
CTAGCCGA	0.00188

Sequence	PBM E-score
AAGACCGT	-0.0491
CTTATGGC	-0.0561
GTCCAACA	0.0123
CTCGCTGC	-0.152
AGTCCCGA	-0.134
CACTTGTC	-0.15
GGGCTTTA	-0.27
ACGCTGAA	-0.0214
AGCATCAA	0.0178
ACGTCCGG	0.101
AACGTCAT	0.129
AGTTAGGC	-0.0332
ATGCGTCA	-0.0306
GCCTAATA	-0.0305
CCTCATTC	0.00298
TAGACCGA	0.0639
CTATAAAA	0.183
ATCGTATG	0.054
CTGAACCC	-0.0401
CCAACGAA	-0.192
GAAGTTCC	-0.0651
GTACTCCA	-0.0426
GAATTCTA	0.219
GCGACAAC	-0.023
AAGTAACC	0.133

Sequence	PBM E-score
ATGTTGTC	-0.0587
CGAACCCC	0.131
AGGTGCGC	-0.194
CCGGCGGC	0.19
CCACAAGA	-0.0811
CACGACAC	-0.082
AGACACAC	-0.149
GGATAAAA	0.252
ATAGCATG	-0.208
AGTTCAGG	-0.135
CGGGATAA	0.107
AGTGGACA	0.0387
CCTTTGGC	-0.324
ATCTAGCG	-0.0758
CACCTCCG	0.194
CGAATTTC	0.294
CACTAGAA	-0.0449
AGGGGCAC	-0.297
GTCCGAAC	0.397
